Assay results reported in paper PMC4336329 (PLoS ONE, 2015).
Screen size: about 310,000 compounds; about 14,000 (4.5%) showed an effect of 50% or more. The effect is printed as a negative number. The list shows a part of the results.

Biological target: human ether-à-go-go-related gene (hERG) potassium channel (human, UniProt Q12809)
Test: primary screen, population patch clamp on CHO cells stably expressing hERG
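Note: peak tail current of the secondary pulse compared with the same well before compound.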

Sequence of human ether-à-go-go-related gene (hERG) potassium channel (Q12809 whole entry, looked up): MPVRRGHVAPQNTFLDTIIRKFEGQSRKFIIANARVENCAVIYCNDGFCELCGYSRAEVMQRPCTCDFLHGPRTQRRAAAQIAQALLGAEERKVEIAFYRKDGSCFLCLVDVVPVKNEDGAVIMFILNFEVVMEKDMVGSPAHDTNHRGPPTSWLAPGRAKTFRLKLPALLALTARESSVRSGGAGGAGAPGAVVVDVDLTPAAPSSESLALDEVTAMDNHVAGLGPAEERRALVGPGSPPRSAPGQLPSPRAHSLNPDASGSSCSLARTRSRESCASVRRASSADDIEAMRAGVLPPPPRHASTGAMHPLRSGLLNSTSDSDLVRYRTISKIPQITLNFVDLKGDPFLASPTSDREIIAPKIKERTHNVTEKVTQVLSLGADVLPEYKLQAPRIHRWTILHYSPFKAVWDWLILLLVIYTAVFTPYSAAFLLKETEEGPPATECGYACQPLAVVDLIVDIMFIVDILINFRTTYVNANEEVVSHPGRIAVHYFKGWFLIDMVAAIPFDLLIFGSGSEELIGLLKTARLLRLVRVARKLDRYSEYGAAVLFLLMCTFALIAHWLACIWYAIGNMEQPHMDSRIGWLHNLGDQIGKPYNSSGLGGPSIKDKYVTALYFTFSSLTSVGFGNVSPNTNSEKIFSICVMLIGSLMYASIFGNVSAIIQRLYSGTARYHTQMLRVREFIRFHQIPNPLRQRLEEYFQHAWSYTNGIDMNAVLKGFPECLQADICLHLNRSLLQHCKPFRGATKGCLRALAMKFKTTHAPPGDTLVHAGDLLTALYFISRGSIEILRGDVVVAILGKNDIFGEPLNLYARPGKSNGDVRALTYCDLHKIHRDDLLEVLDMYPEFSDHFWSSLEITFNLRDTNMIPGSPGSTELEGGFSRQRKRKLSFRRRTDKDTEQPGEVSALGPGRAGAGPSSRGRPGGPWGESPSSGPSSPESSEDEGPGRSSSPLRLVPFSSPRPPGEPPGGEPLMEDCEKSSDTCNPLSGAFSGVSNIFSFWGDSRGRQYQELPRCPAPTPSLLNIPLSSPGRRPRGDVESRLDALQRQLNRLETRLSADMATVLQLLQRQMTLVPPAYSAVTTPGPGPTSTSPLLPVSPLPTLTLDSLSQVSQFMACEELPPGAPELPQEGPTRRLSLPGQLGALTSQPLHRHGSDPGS

Compound | hERG current change (%, negative = inhibition) at 10uM [%]
C(=C\c1ccccc1)/CSc1nnc(-c2ccncc2)n1Cc1ccco1 | -63.9
COC(=O)C1=C(C)NC2=C(C1c1ccc(O)cc1)S(=O)(=O)c1ccccc12 (centres unmarked) | 1.76
COc1ccc(NC(=O)c2ccc3nc(-c4ccccc4)c(-c4ccccc4)nc3c2)c(OC)c1 | 8.15
Cc1ccnc(NC(=O)COC(=O)C2COc3ccccc3O2)n1 (centres unmarked) | 9.15
COC(=O)c1sc2cc(C(F)(F)F)cnc2c1-c1ccccn1 | 5.64
O=C(COc1cc2oc(=O)c3c(c2cc1Cl)CCC3)NCC(O)c1ccccc1 (centres unmarked) | 21.4
COc1ccc(Cc2nnc(SCC(=O)Nc3cc(Cl)ccc3C)[nH]c2=O)cc1 | -0.96
COC(=O)NCC(c1ccco1)N1CCN(c2ccc(F)cc2)CC1 (centres unmarked) | -1.75
CC1(c2ccccc2)NC(=O)N(N)C1=O (centres unmarked) | 17.9
CCCCN(CC)Cc1c(C)[nH]c2c(ccc3ccccc32)c1=O | -74.3
Nc1ccc(C(=O)N/N=C2\CCCc3c2[nH]c2ccccc32)cc1 | 16.2
CC(=O)c1c(C)[nH]c(C(=O)COC(=O)c2cccnc2Cl)c1C | -13.1
Cc1cc(NC(=O)C(C)SCC(=O)Nc2cc(C(F)(F)F)ccc2N2CCCCC2)no1 (centres unmarked) | -19.6
Cn1c(=O)c2c(nc(N3CCN(C(=O)c4ccco4)CC3)n2CCSc2ncccn2)n(C)c1=O | -57.4
Cc1c(C(=O)CN2CCOCC2)[nH]c2ccccc12 | -2.99
COc1ccc(CN(C(=O)c2nsc(Cl)c2Cl)C(C(=O)NC2CCCC2)c2ccc(C)cc2)cc1 (centres unmarked) | -12.4
CS(=O)(=O)c1ccc(Cl)c(NC(=O)Nc2ccccc2)c1 | 11.4
Nc1c(C(=O)Nc2ccc(Br)cc2)sc2nc(-c3ccco3)ccc12 | -1.76
CN(CCC#N)Cc1cc(=O)oc2ccc3ccccc3c12 | -22.7
CC(C)(C)n1nnnc1C(c1ccc(F)cc1)N1CCC(C(N)=O)CC1.Cl (centres unmarked) | 11.3
Brc1ccc(OCc2ccccc2)c(CNCc2ccncc2)c1.Cl | -19.9
COc1ccc(Cc2nnc(Nc3ccc(C)cc3C)[nH]c2=O)cc1 | 5.84

Compound | hERG current change (%, negative = inhibition) at 10uM [%]
COc1cccc(CC(=O)OC(C)C(=O)Nc2ccc(Cl)cn2)c1 (centres unmarked) | -23.9
O=C(CCCNC(=O)c1ccc(Cl)cc1)Nc1ccc(S(=O)(=O)Nc2ncccn2)cc1 | 0.94
O=C(N/N=C/c1ccc(Cl)cc1)c1nc2ccc([N+](=O)[O-])cc2c(=O)[nH]1 | -27.3
Cc1ccc(NC2c3ncccc3C(=O)N2C2CCCCC2)cc1C (centres unmarked) | -12.6
O=C(CSc1ncn[nH]1)Nc1ccccc1Sc1ccccc1 | -16.1
c1ccc(NCc2nc3ccccc3n2CCOc2ccccc2)cc1 | 9.5
O=c1[nH]c(=O)n(-c2ccc(Br)cc2)c(O)c1C=NCCN1CCCCC1 | 1.9
CCN(CC)CCOc1ccc(Br)cc1 | -38.4
Cc1sc2ncnc(OCC(=O)NC3CCS(=O)(=O)C3)c2c1C (centres unmarked) | 19.9
Cc1ccc(N(CC(=O)NN=C2CCN(C)CC2)S(=O)(=O)c2ccccc2)c(C)c1 | -9.48
CC(C)Oc1ccc(CC(=O)NNC(=S)Nc2ccccc2)cc1 | 20.8
CCc1noc(C)c1C(=O)Nc1nc(-c2ccc(OC)c(OC)c2)cs1 | 6.58
Cc1cc(C)c2c(C(C)(C)C)nn(-c3ccccc3)c2n1 | 18.2
COc1ccccc1NC(=O)CN(Cc1ccccc1)S(C)(=O)=O | -5.11
CCCn1c(=S)[nH]c2cc(OC)c(OC)cc2c1=O | -5.68
CCOC(=O)c1ccccc1NC(=O)c1ccc(Cl)c(S(=O)(=O)N2CCOCC2)c1 | -6.83
Cn1c(CNC(=O)CCNC(=O)c2cccc(F)c2)cc(=O)n(C)c1=O | 9.81
CC(=O)Oc1ccc(/C=C2/SC(=S)N(Cc3ccccc3)C2=O)cc1 | 10.2
CCC1=C(OC(=O)N(CC)CC)N2C(=O)OC(=NCC(=O)OC)[C@]2(Cc2ccccc2)[C@H]2C1=CC[C@H]1C(=O)N(CC(=O)OC)C(=O)[C@H]12 | -9.16
Cc1cccc(NS(=O)(=O)c2nnc(NC(=O)c3ccccc3F)s2)c1 | 1.06
COc1ccc2[nH]cc(C(=O)C(=O)N3CCCCC3)c2c1 | 5.35
O=C(COC(=O)CCN=C1NS(=O)(=O)c2ccccc21)NNC(=O)c1ccc(Cl)cc1 | 0.0983
